# Experimental data as given in the supplement of paper PMC8728848.
# The other results are listed elsewhere or left out.
# B1: Na-CTL-1 (Necator americanus) (protein)
# chain: MQRSFLLLLVVLAGAWAVNTTIPLKLMGGFTPMKYQCVGRVSDIWADVLFLIESSDMITKSGFRQVIAFITATTKKMTIGQDEKQTRVGFITYGEEAKLIYDLDHWRSTEKLSDLVQKIPYVKSSGTNIAAAIALANKVFNSPTHRPNVPKVMVIVANGLKKGSQNPIPVATAFKDFGGIIITIEYTQYDNIQVPILKKIASEGYNIRSNDEDFSVRTLTNMLLQANCFCPDHYVPFRVNNPEFGCFVTAKIPSMWRDAAEMCRAVEEGKLVKVENEEKAAFIMKLVGPKKEAWIGLRYYGNKFQWTDGTKLNADDFNLWPEDIKELNGPHCVSMYQDQKDKKYYWRAGKCLEDMRYVCEVQPCSASNYCSEPVFMYRQKHRALLPAPPPPPN
# Columns and labels:
# Assay in all cases: glycan array binding signal (z-score within array); higher = stronger binding
# Conditions in all cases: glycan notation: IUPAC condensed, linker removed
# GalNAc(b1-3)Gal = target: GalNAc(b1-3)Gal
# Procedure, shortened: (§1)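 From the Consortium for Functional Glycomics database, 3228 arrays were curated, keeping only those whose protein sequence was available. Binding is given as a within-array Z-score averaged across arrays sharing a protein sequence and across linkers. Negative Z-scores can be read as non-binding.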
# [1] = target: GalNAc(b1-3)Gal(a1-4)Gal(b1-4)GlcNAc
# Procedure, shortened: as §1
# [2] = target: GalNAc(b1-3)Gal(a1-4)Gal(b1-4)GlcNAc(b1-3)Gal(b1-4)Glc
# Procedure, shortened: as §1
# [3] = target: GalNAc(b1-3)Gal(a1-6)Gal(b1-4)Glc
# Procedure, shortened: as §1
# GalNAc(b1-3)GalNAc = target: GalNAc(b1-3)GalNAc
# Procedure, shortened: as §1
# GalNAc(b1-3)GlcNAc = target: GalNAc(b1-3)GlcNAc
# Procedure, shortened: as §1
# GalNAc(b1-4)Gal(b1-4)Glc = target: GalNAc(b1-4)Gal(b1-4)Glc
# Procedure, shortened: as §1
# GalNAc(b1-4)GlcNAc = target: GalNAc(b1-4)GlcNAc
# Procedure, shortened: as §1
# [4] = target: GalNAc(b1-4)GlcNAc(b1-2)Man
# Procedure, shortened: as §1
# [5] = target: GalNAc(b1-4)GlcNAc(b1-2)Man(a1-3)[GalNAc(b1-4)GlcNAc(b1-2)Man(a1-6)]Man(b1-4)GlcNAc(b1-4)GlcNAc
# Procedure, shortened: as §1
# [6] = target: GalNAc(b1-4)GlcNAc(b1-3)GalNAc(b1-4)GlcNAc
# Procedure, shortened: as §1
# GalNAc(b1-4)GlcNAc6S = target: GalNAc(b1-4)GlcNAc6S
# Procedure, shortened: as §1
# GalNAc(b1-6)GalNAc = target: GalNAc(b1-6)GalNAc
# Procedure, shortened: as §1
# GalNAc3S(b1-4)GlcNAc = target: GalNAc3S(b1-4)GlcNAc
# Procedure, shortened: as §1
# GalNAc3S(b1-4)GlcNAc3S = target: GalNAc3S(b1-4)GlcNAc3S
# Procedure, shortened: as §1
# [7] = target: GalNAc3S(b1-4)[Fuc(a1-3)]GlcNAc
# Procedure, shortened: as §1
# GalNAc4S6S(b1-4)GlcNAc = target: GalNAc4S6S(b1-4)GlcNAc
# Procedure, shortened: as §1
# GalNAc6S(b1-4)GlcNAc = target: GalNAc6S(b1-4)GlcNAc
# Procedure, shortened: as §1
# Glc(a1-4)Glc = target: Glc(a1-4)Glc
# Procedure, shortened: as §1
# [8] = target: Glc(a1-4)Glc(a1-4)Glc(a1-4)Glc
# Procedure, shortened: as §1
# Glc(a1-6)Glc(a1-6)Glc = target: Glc(a1-6)Glc(a1-6)Glc
# Procedure, shortened: as §1
# [9] = target: Glc(a1-6)Glc(a1-6)Glc(a1-6)Glc
# Procedure, shortened: as §1
# Glc(b1-4)Glc = target: Glc(b1-4)Glc
# Procedure, shortened: as §1
# Glc(b1-6)Glc = target: Glc(b1-6)Glc
# Procedure, shortened: as §1
# GlcA(b1-3)Gal = target: GlcA(b1-3)Gal
# Procedure, shortened: as §1
# GlcA(b1-3)GlcNAc = target: GlcA(b1-3)GlcNAc
# Procedure, shortened: as §1
# GlcA(b1-6)Gal = target: GlcA(b1-6)Gal
# Procedure, shortened: as §1
# [10] = target: GlcA3S(b1-3)Gal(b1-4)GlcNAc(b1-2)Man
# Procedure, shortened: as §1
# [11] = target: GlcA3S(b1-3)Gal(b1-4)GlcNAc(b1-3)Gal(b1-4)Glc
# Procedure, shortened: as §1
# [12] = target: GlcNAc(a1-3)Gal(b1-4)GlcNAc
# Procedure, shortened: as §1
# [13] = target: GlcNAc(a1-4)Gal(b1-3)GlcNAc
# Procedure, shortened: as §1
# [14] = target: GlcNAc(a1-4)Gal(b1-4)GalNAc
# Procedure, shortened: as §1
# [15] = target: GlcNAc(a1-4)Gal(b1-4)GlcNAc
# Procedure, shortened: as §1
# [16] = target: GlcNAc(a1-4)Gal(b1-4)GlcNAc(b1-3)Gal(b1-4)Glc
# Procedure, shortened: as §1
# [17] = target: GlcNAc(a1-4)Gal(b1-4)GlcNAc(b1-3)Gal(b1-4)GlcNAc
# Procedure, shortened: as §1
# [18] = target: GlcNAc(a1-4)Gal(b1-4)GlcNAc(b1-3)Gal(b1-4)GlcNAc(b1-3)Gal(b1-4)GlcNAc
# Procedure, shortened: as §1
# [19] = target: GlcNAc(a1-4)Gal(b1-4)GlcNAc(b1-3)Gal(b1-4)[Fuc(a1-3)]GlcNAc(b1-3)Gal(b1-4)[Fuc(a1-3)]GlcNAc
# Procedure, shortened: as §1
# [20] = target: GlcNAc(a1-6)Gal(b1-4)GlcNAc
# Procedure, shortened: as §1
binder,measurement,setting,value
B1,glycan array binding signal (z-score),GalNAc(b1-3)Gal,-0.036
same,glycan array binding signal (z-score),[1],0.987
same,glycan array binding signal (z-score),[2],-0.168
same,glycan array binding signal (z-score),[3],-0.388
same,glycan array binding signal (z-score),GalNAc(b1-3)GalNAc,-0.358
same,glycan array binding signal (z-score),GalNAc(b1-3)GlcNAc,-0.615
same,glycan array binding signal (z-score),GalNAc(b1-4)Gal(b1-4)Glc,0.032
same,glycan array binding signal (z-score),GalNAc(b1-4)GlcNAc,1.86
same,glycan array binding signal (z-score),[4],-0.422
same,glycan array binding signal (z-score),[5],-0.397
same,glycan array binding signal (z-score),[6],-0.514
same,glycan array binding signal (z-score),GalNAc(b1-4)GlcNAc6S,-0.439
same,glycan array binding signal (z-score),GalNAc(b1-6)GalNAc,0.164
same,glycan array binding signal (z-score),GalNAc3S(b1-4)GlcNAc,-0.26
same,glycan array binding signal (z-score),GalNAc3S(b1-4)GlcNAc3S,-0.209
same,glycan array binding signal (z-score),[7],-0.516
same,glycan array binding signal (z-score),GalNAc4S6S(b1-4)GlcNAc,-0.341
same,glycan array binding signal (z-score),GalNAc6S(b1-4)GlcNAc,-0.43
same,glycan array binding signal (z-score),Glc(a1-4)Glc,-0.637
same,glycan array binding signal (z-score),[8],-0.045
same,glycan array binding signal (z-score),Glc(a1-6)Glc(a1-6)Glc,-0.486
same,glycan array binding signal (z-score),[9],-0.131
same,glycan array binding signal (z-score),Glc(b1-4)Glc,-0.001
same,glycan array binding signal (z-score),Glc(b1-6)Glc,-0.292
same,glycan array binding signal (z-score),GlcA(b1-3)Gal,0.144
same,glycan array binding signal (z-score),GlcA(b1-3)GlcNAc,0.371
same,glycan array binding signal (z-score),GlcA(b1-6)Gal,-0.043
same,glycan array binding signal (z-score),[10],0.146
same,glycan array binding signal (z-score),[11],1.18
same,glycan array binding signal (z-score),[12],-0.386
same,glycan array binding signal (z-score),[13],-0.246
same,glycan array binding signal (z-score),[14],0.127
same,glycan array binding signal (z-score),[15],-0.192
same,glycan array binding signal (z-score),[16],-0.616
same,glycan array binding signal (z-score),[17],-0.456
same,glycan array binding signal (z-score),[18],-0.269
same,glycan array binding signal (z-score),[19],0.608
same,glycan array binding signal (z-score),[20],-0.383
